The record followed here is ChEMBL document CHEMBL5606460, “ASAP - DENV-2 NS2B-NS3 protease fluorescence single point” (2024).

The whole screen tested about 2,000 compounds, of which about 110 (5.5%) showed an effect of 50% or more. The list shows a part of the results.

This test deals with Genome polyprotein (dengue virus type 2) (UniProt P29990).
The mark [1] stands for this setting: Thailand/16681/1984, Concentration 25.0 uM, Number of replicates 1.0.

As a reminder, the inhibition is the relative decrease from the control value, in per cent. As to `Cc1cc(CO)c2cccc(NCc3ccc(C(N)=O)cc3)c2n1`, the inhibition (Thailand/16681/1984, Concentration 49.95 uM, Number of replicates 2.0, Standard deviation 1.5291755401543807 %) was found to be 1.6% and the inhibition (Thailand/16681/1984, Concentration 99.9 uM, Number of replicates 2.0, Standard deviation 0.4954793626184345 %) was 6.67%. Consider `Cc1cc(CO)c2cccc(Nc3ccc(C(=O)O)o3)c2n1`, for which the inhibition is, setting by setting: (Thailand/16681/1984, Concentration 49.95 uM, Number of replicates 2.0, Standard deviation 2.0261345521834873 %) 10.8%; (Thailand/16681/1984, Concentration 99.9 uM, Number of replicates 2.0, Standard deviation 1.7612979174821286 %) 14%. In the case of `C[C@H](NC(=O)C1CCN(c2ccc(C=O)cc2)CC1)c1cccc(C(F)(F)F)c1`, the inhibition under setting [1] worked out at 11%.

In the case of `CC(=O)N[C@@H](CCCCN)C(=O)Nc1cccc2cccnc12`, where the note is “Thailand/16681/1984, Concentration 99.9 uM, Number of replicates 2.0, Standard deviation 1.5851773643231095 %”, the inhibition is -9.48%.

`O=Cc1ccc(N2CCC(C(=O)N[C@H](c3ccccc3)[C@@H](O)c3ccccc3)CC2)cc1`: under setting [1], the inhibition is 12%. For `Cc1cc(CO)c2cccc(Cc3ccccc3NC(=O)c3ccno3)c2n1`, the inhibition (Thailand/16681/1984, Concentration 49.95 uM, Number of replicates 2.0, Standard deviation 3.752588616330447 %) was found to be 3.29% and the inhibition (Thailand/16681/1984, Concentration 99.9 uM, Number of replicates 2.0, Standard deviation 1.45880155634974 %) came out at 6.29%. In the case of `O=Cc1ccc(N2CCC(C(=O)Nc3ccc(Br)cc3O)CC2)cc1`, under setting [1], the inhibition was 31.4%. Same read-out and setting: the same measure for `O=Cc1ccc(N2CCC(C(=O)NCc3nnc(-c4ccccc4)o3)CC2)cc1`: 14.1%. Consider `Cc1cc(CO)c2cccc(Cc3ccccc3NC(=O)[C@@H]3CCCC[C@H]3C(=O)O)c2n1`, for which the inhibition turned out to be 5.96% (Thailand/16681/1984, Concentration 49.95 uM, Number of replicates 2.0, Standard deviation 1.6921268468808375 %) and 17.6% (Thailand/16681/1984, Concentration 99.9 uM, Number of replicates 2.0, Standard deviation 1.4248763778715632 %).

Regarding `Cc1cc(CO)c2cccc(C[C@H](NC(=O)[C@@H]3C[C@@H](O)CN3)C(=O)O)c2n1`, the inhibition was 3.73% (Thailand/16681/1984, Concentration 49.95 uM, Number of replicates 2.0, Standard deviation 1.1012335941421065 %) and 10.4% (Thailand/16681/1984, Concentration 99.9 uM, Number of replicates 2.0, Standard deviation 0.20808607176883367 %).

Turning to `N#CC1(c2ccccc2)CCN(C(=O)C2CCN(c3ccc(C=O)cc3)CC2)CC1`, the inhibition under setting [1] turned out to be 11.5%.

Turning to `CCn1nnc(Cn2cc(C3CCNCC3)c(C)n2)n1`, the inhibition is, setting by setting: (Thailand/16681/1984, Concentration 49.5 uM, Number of replicates 2.0, Standard deviation 0.5453516072891859 %) -0.358%; (Thailand/16681/1984, Concentration 99.01 uM, Number of replicates 2.0, Standard deviation 0.32114141041718347 %) -0.944%; (Thailand/16681/1984, Concentration 198.0 uM, Number of replicates 2.0, Standard deviation 0.8338806239972538 %) -0.003%. For the compound `O=Cc1ccc(N2CCC(C(=O)NCCc3cccc(Br)c3)CC2)cc1`, the inhibition under setting [1] worked out at 11.8%.

For `O=C(N[C@H](C(=O)O)c1ccc(OCc2ccccc2)cc1)OCc1ccccc1`, the inhibition came out at 1.16% (Thailand/16681/1984, Concentration 49.5 uM, Number of replicates 2.0, Standard deviation 1.5755205914644184 %); 3.53% (Thailand/16681/1984, Concentration 99.01 uM, Number of replicates 2.0, Standard deviation 1.1157080020325059 %); 10.6% (Thailand/16681/1984, Concentration 198.0 uM, Number of replicates 2.0, Standard deviation 0.14215963415330513 %). For the compound `N#Cc1cccc(-c2nc3c(C(=O)NCc4cccnc4)cc(Cl)cc3[nH]2)c1`, the inhibition was determined as 6.57% (Thailand/16681/1984, Concentration 99.5 uM, Number of replicates 2.0, Standard deviation 2.321247122631555 %) and 38.2% (Thailand/16681/1984, Concentration 295.6 uM, Number of replicates 2.0, Standard deviation 6.98688470817418 %).

For `COc1cc2c(cc1OC)C(=O)[C@@H](CC1CCN(C(=O)C3CCN(c4ccc(C=O)cc4)CC3)CC1)C2`, the inhibition under setting [1] amounted to 13.2%. Turning to `CC(C)(C)OC(=O)Cn1ccnc(N2CC[C@@H](CO)C2)c1=O`, the inhibition (Thailand/16681/1984, Concentration 49.5 uM, Number of replicates 2.0, Standard deviation 1.925386388328258 %) was 8.46%; the inhibition (Thailand/16681/1984, Concentration 99.01 uM, Number of replicates 2.0, Standard deviation 1.9414052253354905 %) was 18.8%; the inhibition (Thailand/16681/1984, Concentration 198.0 uM, Number of replicates 2.0, Standard deviation 1.9983621392383246 %) turned out to be 33.8%. Consider `CC(=O)N[C@@H](Cc1ccc(CN)cc1)C(=O)Nc1cccc2c(CO)cc(C)nc12`, for which the inhibition stood at 24.9% (Thailand/16681/1984, Concentration 49.95 uM, Number of replicates 2.0, Standard deviation 0.08390662036506401 %) and 96.3% (Thailand/16681/1984, Concentration 99.9 uM, Number of replicates 2.0, Standard deviation 0.3339864632910001 %). Take `Cn1cccc(C(=O)Nc2cc(Cl)cc(C(=O)NC(C)(C)CO)c2)c1=O`: the inhibition by setting is: (Thailand/16681/1984, Concentration 49.5 uM, Number of replicates 2.0, Standard deviation 1.3525953966857744 %) -1.24%; (Thailand/16681/1984, Concentration 99.01 uM, Number of replicates 2.0, Standard deviation 1.139373794646161 %) -1.54%; (Thailand/16681/1984, Concentration 198.0 uM, Number of replicates 2.0, Standard deviation 1.825064413405171 %) -3.63%. `Cc1nc([C@H]2CC[C@H](NC(=O)c3ccc(O)c(NC(=O)c4ccncc4F)c3C)CC2)n[nH]1`: the inhibition reads like this: (Thailand/16681/1984, Concentration 49.5 uM, Number of replicates 2.0, Standard deviation 0.1289894183432269 %) -1.73%; (Thailand/16681/1984, Concentration 99.01 uM, Number of replicates 2.0, Standard deviation 0.7020941721994499 %) -1.19%; (Thailand/16681/1984, Concentration 198.0 uM, Number of replicates 2.0, Standard deviation 0.446292409899402 %) -0.612%. As to `O=C(c1ccn([C@H]2CCCNC2)n1)N1CCC[C@H](c2ccccc2)C1`, the inhibition stood at 2.31% (Thailand/16681/1984, Concentration 49.5 uM, Number of replicates 2.0, Standard deviation 9.16460427853716 %); 7.34% (Thailand/16681/1984, Concentration 99.01 uM, Number of replicates 2.0, Standard deviation 15.15135118363098 %); 7.08% (Thailand/16681/1984, Concentration 198.0 uM, Number of replicates 2.0, Standard deviation 8.96789300897869 %). As for `O=Cc1ccc(N2CCC(C(=O)Nc3cc(Br)cc(C(F)(F)F)c3)CC2)cc1`, the inhibition under setting [1] came out at 12.4%. As to `Cc1cc(CO)c2cccc(CC(=O)N[C@@H](CCC(N)=O)C(=O)O)c2n1`, the inhibition was 95.6% (Thailand/16681/1984, Concentration 49.95 uM, Number of replicates 2.0, Standard deviation 0.1031646955614498 %) and 98.7% (Thailand/16681/1984, Concentration 99.9 uM, Number of replicates 2.0, Standard deviation 0.012461980167701147 %). As to `Cc1cc(CO)c2cccc(Cc3ccccc3NC(=O)CN3CCOCC3)c2n1`, the inhibition is, setting by setting: (Thailand/16681/1984, Concentration 49.95 uM, Number of replicates 2.0, Standard deviation 1.5612707024702146 %) -2%; (Thailand/16681/1984, Concentration 99.9 uM, Number of replicates 2.0, Standard deviation 0.4618038620708361 %) 3.39%. Regarding `CC(=O)N[C@@H](CCCN)C(=O)Nc1ccccc1Cc1cccc2c(CO)cc(C)nc12`, the inhibition reads like this: (Thailand/16681/1984, Concentration 49.95 uM, Number of replicates 2.0, Standard deviation 1.2344771467866291 %) -4.07%; (Thailand/16681/1984, Concentration 99.9 uM, Number of replicates 2.0, Standard deviation 0.6037374205287288 %) 4.36%. `c1cnc(N2CCOCC2)c(CN2CC[C@H](c3c[nH]c4ccccc34)C2)c1`: the inhibition runs as follows: (Thailand/16681/1984, Concentration 49.5 uM, Number of replicates 2.0, Standard deviation 0.5553889740924645 %) 0.48%; (Thailand/16681/1984, Concentration 99.01 uM, Number of replicates 2.0, Standard deviation 1.234197713181002 %) 2.1%; (Thailand/16681/1984, Concentration 198.0 uM, Number of replicates 2.0, Standard deviation 1.4786453041530332 %) 4.2%. Take `c1cncc(C2CCN(Cc3c[nH]c4ccccc34)CC2)c1`: the inhibition (Thailand/16681/1984, Concentration 49.5 uM, Number of replicates 2.0, Standard deviation 0.9186485573584864 %) is -4.68%; the inhibition (Thailand/16681/1984, Concentration 99.01 uM, Number of replicates 2.0, Standard deviation 0.34840877767663997 %) was -2.48%; the inhibition (Thailand/16681/1984, Concentration 198.0 uM, Number of replicates 2.0, Standard deviation 1.0669618842754731 %) stood at 2.52%. For `C[C@@H](c1ccccc1)N(C(=O)C1CCN(c2ccc(C=O)cc2)CC1)[C@@H](C)c1ccccc1`, under setting [1], the inhibition came out at 15.2%. As to `c1cnc(C2CCN(Cc3c[nH]c4ccccc34)CC2)nc1`, the inhibition runs as follows: (Thailand/16681/1984, Concentration 49.5 uM, Number of replicates 2.0, Standard deviation 0.0814293971969877 %) -4.94%; (Thailand/16681/1984, Concentration 99.01 uM, Number of replicates 2.0, Standard deviation 1.1974150626674833 %) -3.24%; (Thailand/16681/1984, Concentration 198.0 uM, Number of replicates 2.0, Standard deviation 1.6263665310687148 %) -1.42%. Take `O=C(NCCc1c[nH]c2cccnc12)[C@@]1(c2ccc(F)cc2)CCCNC1`: the inhibition by setting is: (Thailand/16681/1984, Concentration 49.5 uM, Number of replicates 2.0, Standard deviation 1.1136820873182842 %) 1.59%; (Thailand/16681/1984, Concentration 99.01 uM, Number of replicates 2.0, Standard deviation 0.49533104785852466 %) 0.827%; (Thailand/16681/1984, Concentration 198.0 uM, Number of replicates 2.0, Standard deviation 0.202684658104223 %) 1.03%.

In the case of `O=Cc1ccc(N2CCC(C(=O)NCc3ccc(Br)cc3F)CC2)cc1`, under setting [1], the inhibition stood at 13.2%. Still for that read-out and setting: the same measure for `CC(C)Sc1ccccc1NC(=O)C1CCN(c2ccc(C=O)cc2)CC1`: 12.6%; for `O=Cc1ccc(N2CCC(C(=O)NCc3ccc(-c4ccccc4)cc3)CC2)cc1`: 1.38%; for `O=Cc1ccc(N2CCC(C(=O)N3CCC(Oc4ncccn4)CC3)CC2)cc1`: 13.4%. For `c1ccc2c(CN3CCC(c4c[nH]c5ncccc45)CC3)c[nH]c2c1`, the inhibition is, setting by setting: (Thailand/16681/1984, Concentration 49.5 uM, Number of replicates 2.0, Standard deviation 0.3722732505341754 %) 1.81%; (Thailand/16681/1984, Concentration 99.01 uM, Number of replicates 2.0, Standard deviation 0.4261548774885636 %) 5.47%; (Thailand/16681/1984, Concentration 198.0 uM, Number of replicates 2.0, Standard deviation 0.5067055971877963 %) 12%.
